# According to the supplement of paper PMC8728848:
# The list shows a part of the results.
# How the values were obtained:
# Experiment in all cases: glycan array binding signal (z-score within array); higher = stronger binding
# Settings in all cases: glycan notation: IUPAC condensed, linker removed
# [1] = molecular target: GlcNAc(b1-4)GlcNAc(b1-4)GlcNAc(b1-4)GlcNAc(b1-4)GlcNAc
# Procedure, shortened: (§1)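 The Consortium for Functional Glycomics database supplied 3228 glycan arrays, of which those lacking an available protein sequence were dropped. The binding signal, a within-array Z-score, was averaged across arrays of the same protein sequence and across linkers. Negative scores can be read as non-binding.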
# [2] = molecular target: GlcNAc(b1-4)GlcNAc(b1-4)GlcNAc(b1-4)GlcNAc(b1-4)GlcNAc(b1-4)GlcNAc
# Procedure, shortened: as §1
# [3] = molecular target: GlcNAc(b1-4)[GlcNAc(b1-6)]GalNAc
# Procedure, shortened: as §1
# [4] = molecular target: GlcNAc(b1-6)Gal(b1-4)GlcNAc
# Procedure, shortened: as §1
# GlcNAc(b1-6)GalNAc = molecular target: GlcNAc(b1-6)GalNAc
# Procedure, shortened: as §1
# Kdn(a2-3)Gal(b1-3)GlcNAc = molecular target: Kdn(a2-3)Gal(b1-3)GlcNAc
# Procedure, shortened: as §1
# Kdn(a2-3)Gal(b1-4)GlcNAc = molecular target: Kdn(a2-3)Gal(b1-4)GlcNAc
# Procedure, shortened: as §1
# [5] = molecular target: Man(a1-2)Man(a1-2)Man(a1-3)Man
# Procedure, shortened: as §1
# [6] = molecular target: Man(a1-2)Man(a1-2)Man(a1-6)[Man(a1-3)]Man
# Procedure, shortened: as §1
# Man(a1-2)Man(a1-3)Man = molecular target: Man(a1-2)Man(a1-3)Man
# Procedure, shortened: as §1
# [7] = molecular target: Man(a1-2)Man(a1-3)[Man(a1-2)Man(a1-6)]Man
# Procedure, shortened: as §1
# [8] = molecular target: Man(a1-2)Man(a1-3)[Man(a1-2)Man(a1-6)]Man(a1-6)[Man(a1-2)Man(a1-2)Man(a1-3)]Man(b1-4)GlcNAc(b1-4)GlcNAc
# Procedure, shortened: as §1
# [9] = molecular target: Man(a1-2)Man(a1-3)[Man(a1-6)]Man(a1-6)[Man(a1-2)Man(a1-3)]Man(b1-4)GlcNAc(b1-4)GlcNAc
# Procedure, shortened: as §1
# [10] = molecular target: Man(a1-2)Man(a1-6)[Man(a1-3)]Man(a1-6)[Man(a1-2)Man(a1-2)Man(a1-3)]Man(b1-4)GlcNAc(b1-4)GlcNAc
# Procedure, shortened: as §1
# Man(a1-3)[Man(a1-6)]Man = molecular target: Man(a1-3)[Man(a1-6)]Man
# Procedure, shortened: as §1
# [11] = molecular target: Man(a1-3)[Man(a1-6)]Man(a1-6)[Man(a1-2)Man(a1-3)]Man(b1-4)GlcNAc(b1-4)GlcNAc
# Procedure, shortened: as §1
# [12] = molecular target: Man(a1-3)[Man(a1-6)]Man(a1-6)[Man(a1-3)]Man(b1-4)GlcNAc(b1-4)GlcNAc
# Procedure, shortened: as §1
# [13] = molecular target: Man(a1-3)[Man(a1-6)]Man(b1-4)GlcNAc(b1-4)GlcNAc
# Procedure, shortened: as §1
# Man(b1-4)GlcNAc = molecular target: Man(b1-4)GlcNAc
# Procedure, shortened: as §1
# Neu5Ac(a2-3)Gal = molecular target: Neu5Ac(a2-3)Gal
# Procedure, shortened: as §1
# [14] = molecular target: Neu5Ac(a2-3)Gal(b1-3)GalNAc
# Procedure, shortened: as §1
# [15] = molecular target: Neu5Ac(a2-3)Gal(b1-3)GalNAc(b1-3)Gal(a1-4)Gal(b1-4)Glc
# Procedure, shortened: as §1
# [16] = molecular target: Neu5Ac(a2-3)Gal(b1-3)GalNAc(b1-3)Gal(b1-4)GlcNAc
# Procedure, shortened: as §1
# [17] = molecular target: Neu5Ac(a2-3)Gal(b1-3)GalNAc(b1-4)[Neu5Ac(a2-3)]Gal(b1-4)Glc
# Procedure, shortened: as §1
# [18] = molecular target: Neu5Ac(a2-3)Gal(b1-3)GalNAc6S
# Procedure, shortened: as §1
# [19] = molecular target: Neu5Ac(a2-3)Gal(b1-3)GlcNAc
# Procedure, shortened: as §1
# [20] = molecular target: Neu5Ac(a2-3)Gal(b1-3)GlcNAc6S
# Procedure, shortened: as §1
# [21] = molecular target: Neu5Ac(a2-3)Gal(b1-3)[Fuc(a1-4)]GlcNAc
# Procedure, shortened: as §1
# [22] = molecular target: Neu5Ac(a2-3)Gal(b1-3)[Fuc(a1-4)]GlcNAc(b1-3)Gal(b1-4)[Fuc(a1-3)]GlcNAc
# Procedure, shortened: as §1
# [23] = molecular target: Neu5Ac(a2-3)Gal(b1-3)[Neu5Ac(a2-3)Gal(b1-4)]GlcNAc
# Procedure, shortened: as §1
binder,measurement,setting,value
"MMR (Homo sapiens), P22897 (protein) MRLPLLLVFASVIPGAVLLLDTRQFLIYNEDHKRCVDAVSPSAVQTAACNQDAESQKFRWVSESQIMSVAFKLCLGVPSKTDWVAITLYACDSKSEFQKWECKNDTLLGIKGEDLFFNYGNRQEKNIMLYKGSGLWSRWKIYGTTDNLCSRGYEAMYTLLGNANGATCAFPFKFENKWYADCTSAGRSDGWLWCGTTTDYDTDKLFGYCPLKFEGSESLWNKDPLTSVSYQINSKSALTWHQARKSCQQQNAELLSITEIHEQTYLTGLTSSLTSGLWIGLNSLSFNSGWQWSDRSPFRYLNWLPGSPSAEPGKSCVSLNPGKNAKWENLECVQKLGYICKKGNTTLNSFVIPSESDVPTHCPSQWWPYAGHCYKIHRDEKKIQRDALTTCRKEGGDLTSIHTIEELDFIISQLGYEPNDELWIGLNDIKIQMYFEWSDGTPVTFTKWLRGEPSHENNRQEDCVVMKGKDGYWADRGCEWPLGYICKMKSRSQGPEIVEVEKGCRKGWKKHHFYCYMIGHTLSTFAEANQTCNNENAYLTTIEDRYEQAFLTSFVGLRPEKYFWTGLSDIQTKGTFQWTIEEEVRFTHWNSDMPGRKPGCVAMRTGIAGGLWDVLKCDEKAKFVCKHWAEGVTHPPKPTTTPEPKCPEDWGASSRTSLCFKLYAKGKHEKKTWFESRDFCRALGGDLASINNKEEQQTIWRLITASGSYHKLFWLGLTYGSPSEGFTWSDGSPVSYENWAYGEPNNYQNVEYCGELKGDPTMSWNDINCEHLNNWICQIQKGQTPKPEPTPAPQDNPPVTEDGWVIYKDYQYYFSKEKETMDNARAFCKRNFGDLVSIQSESEKKFLWKYVNRNDAQSAYFIGLLISLDKKFAWMDGSKVDYVSWATGEPNFANEDENCVTMYSNSGFWNDINCGYPNAFICQRHNSSINATTVMPTMPSVPSGCKEGWNFYSNKCFKIFGFMEEERKNWQEARKACIGFGGNLVSIQNEKEQAFLTYHMKDSTFSAWTGLNDVNSEHTFLWTDGRGVHYTNWGKGYPGGRRSSLSYEDADCVVIIGGASNEAGKWMDDTCDSKRGYICQTRSDPSLTNPPATIQTDGFVKYGKSSYSLMRQKFQWHEAETYCKLHNSLIASILDPYSNAFAWLQMETSNERVWIALNSNLTDNQYTWTDKWRVRYTNWAADEPKLKSACVYLDLDGYWKTAHCNESFYFLCKRSDEIPATEPPQLPGRCPESDHTAWIPFHGHCYYIESSYTRNWGQASLECLRMGSSLVSIESAAESSFLSYRVEPLKSKTNFWIGLFRNVEGTWLWINNSPVSFVNWNTGDPSGERNDCVALHASSGFWSNIHCSSYKGYICKRPKIIDAKPTHELLTTKADTRKMDPSKPSSNVAGVVIIVILLILTGAGLAAYFFYKKRRVHLPQEGAFENTLYFNSQSSPGTSDMKDLVGNIEQNEHSVI",glycan array binding signal (z-score),[1],-0.455
same,glycan array binding signal (z-score),[2],-0.44
same,glycan array binding signal (z-score),[3],-0.439
same,glycan array binding signal (z-score),[4],-0.429
same,glycan array binding signal (z-score),GlcNAc(b1-6)GalNAc,-0.446
same,glycan array binding signal (z-score),Kdn(a2-3)Gal(b1-3)GlcNAc,-0.406
same,glycan array binding signal (z-score),Kdn(a2-3)Gal(b1-4)GlcNAc,0.013
same,glycan array binding signal (z-score),[5],0.712
same,glycan array binding signal (z-score),[6],0.444
same,glycan array binding signal (z-score),Man(a1-2)Man(a1-3)Man,-0.256
same,glycan array binding signal (z-score),[7],0.011
same,glycan array binding signal (z-score),[8],0.289
same,glycan array binding signal (z-score),[9],1.23
same,glycan array binding signal (z-score),[10],1.31
same,glycan array binding signal (z-score),Man(a1-3)[Man(a1-6)]Man,3.57
same,glycan array binding signal (z-score),[11],2.45
same,glycan array binding signal (z-score),[12],2.86
same,glycan array binding signal (z-score),[13],3.27
same,glycan array binding signal (z-score),Man(b1-4)GlcNAc,-0.33
same,glycan array binding signal (z-score),Neu5Ac(a2-3)Gal,-0.403
same,glycan array binding signal (z-score),[14],-0.417
same,glycan array binding signal (z-score),[15],-0.364
same,glycan array binding signal (z-score),[16],-0.336
same,glycan array binding signal (z-score),[17],-0.394
same,glycan array binding signal (z-score),[18],-0.344
same,glycan array binding signal (z-score),[19],-0.4
same,glycan array binding signal (z-score),[20],-0.304
same,glycan array binding signal (z-score),[21],-0.427
same,glycan array binding signal (z-score),[22],1.53
same,glycan array binding signal (z-score),[23],-0.374
